Data from the supplement of paper PMC10338343.
± gives the standard deviation. The entries are a selection whose mix differs from that of the whole data set.

Test system: MIWI (PIWIL1) piRISC loaded with piRNA #1 (30 nt)
Assay: pre-steady-state target cleavage rate (min^-1); MIWI and MILI are mouse PIWI proteins and EfPiwi is from a freshwater sponge; tags in brackets are library labels; higher = faster piRNA-guided slicing of the target
Details: guide: piRNA #1 5'p-UGAGGUAGUAGGUUGUAUAGUAUCCAGAGG; auxiliary factor: 500 nM mouse GTSF1
In short: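 For Cleave-'n-Seq, a transcribed, DNA-blocked target RNA library […] met 1 nM active affinity-purified piRISC with one synthetic guide at 33 °C for 0–8 or 0–960 min in HEPES–potassium acetate buffer, with or without 500 nM GTSF1 partner protein. Uncleaved targets were sequenced and normalised to depth and weakly complementary targets, with three trials pooled and k3 capped at 0.0001 min^-1. A burst-and-steady-state fit supplied the pre-steady-state cleavage rate.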
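Note: 1 nM active piRISC with 0.1 nM target library at 33 °C single turnover.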

Sequence | pre-steady-state target cleavage rate
GGAGAGGUUACUAUACAAGCUACUACCUCA | 0.175 ± 0.023
GCUCUGGAUACUAUACUUGCUACUACCUCA | 0.0746 ± 0.012
GGAGACCUUCUAUACAACCUACUACCUCA | 0.621 ± 0.077
GGAGACCUUACUAUACAACCUACUAACCUCA | 1.25 ± 0.081
GCUCUGGAUUCUAUACAACCUACUACCUCA | 1.57 ± 0.11
GGUGUGGAUACUAUUCAACCUACUACCUCA | 1.78 ± 0.12
GGACUGGAUACUAUACAUCCUUCUACCUCA | 0.272 ± 0.025
CCUCAGGAUACUAUACAACGUACUACCUCA | 0.78 ± 0.041
GGAGACCAUACUAUAGCAACCUACUACCUCA | 0.383 ± 0.06
GGAGACCUUACUAUUCAACCUACUACCUGA | 0.45 ± 0.046
GGAGACCUAUCUAUGACAACCUACUACCUCA | 0.154 ± 0.023
GGAGACCUAUCUAUACAUCCUAGUACCUCA | 0.0967 ± 0.014
CCUCUGCUAACUAUACAACCUACUACCUCA | 1.86 ± 0.12
GGACUCGAAACUAUACAACCUACUACCUCA | 1.29 ± 0.11
GCUCUGGAUACUAUAGAACCUUCUACCUCA | 0.0828 ± 0.013
GGAGUGGAUACUAUACAACCAACUACCUCA | 0.148 ± 0.012
GGAGACGAUACUAUACAACCUACUCCUCA | 0.00404 ± 0.0028
CCUCUGGAUACUAUACAUCCUACUACCUGA | 0.868 ± 0.11
GCUCUGGAUACUAUACAACCUACUACCCCA | 1.03 ± 0.073
GGAGAGGAUUGUAUACAACCUACUACCUCA | 0.644 ± 0.046
GGUCUGGAUACUAAACAACCUAGUACCUCA | 0.409 ± 0.058
GGAGACCAGUACUAUACAACCUACUACCUCA | 1.45 ± 0.079
GGAGACGAUACUAUACACCCUACUACCUCA | 1.46 ± 0.069

Sequence | pre-steady-state target cleavage rate
GGUCUGGAUUACUAUACAACCUACUACCUCA | 1.66 ± 0.1
GGAGACCUAUCUAUACACCCUACUACCUCA | 0.536 ± 0.042
GGAGACCAUACUAUACAACCUACAACCUCA | 0.982 ± 0.08
CCUCUGGAUUCUAUACAACCAACUACCUCA | 0.178 ± 0.02
GGAGUGGAUAGAAUACAACCUACUACCUCA | 0.962 ± 0.078
GGACUGGAUACUAUACAAGCUACUACGUCA | 0.978 ± 0.064
GGAGUGGAUACUAUACAACCUACUACCUGA | 0.453 ± 0.075
GCUCUGGAUACUAUACAACCUUACUACCUCA | 0.00688 ± 0.0029
GGAGAGGAUCCUAUACAACCUACUACCUCA | 1.51 ± 0.11
GGAGACCUAUCGUAUACAACCUACUACCUCA | 0.0738 ± 0.012
GGAGACCAUACUAUACAACCUACUACCGUCA | 0.82 ± 0.05
GGACUGGAUACUAUACAACGUUCUACCUCA | 0.107 ± 0.014
GGAGACCAUACUAUACAACCUACUACGCUCA | 1.43 ± 0.074
GGAGACCUUACUUUACUACCUACUACCUCA | 0.0816 ± 0.01
GGAGACCUUACAUAUACAACCUACUACCUCA | 0.474 ± 0.051
GGAGACCAUACAAUUCAACCUACUACCUCA | 0.0717 ± 0.013
CCUCUGGAUACUAUAAACCUACUACCUCA | 1.23 ± 0.11
GGAGACCUAUCUAUACGACCUACUACCUCA | 0.209 ± 0.021
GGAGUGGAUACUAUACAUCCUACUACCUGA | 0.148 ± 0.028
CCUCUGGAUAGUUUACAACCUACUACCUCA | 0.525 ± 0.029
GGAGACCUAUCUAUACAACCUAACUACCUCA | 0.0063 ± 0.0018
GGAGACCAUUCUAUACAACCUACUACGUCA | 0.578 ± 0.041
GCUCUGGAUACUAUACAACCUACAACGUCA | 0.425 ± 0.057

Sequence | pre-steady-state target cleavage rate
GGAGACCAUACUUUACAACCUACUAGCUCA | 0.285 ± 0.027
GGAGACGAUAGUAUACAACCAACUACCUCA | 0.135 ± 0.016
GGAGAGGUAUACUAUACAACCUACUACCUCA | 0.49 ± 0.045
GGUCUGGUUACUAUACAACCUACUACGUCA | 0.359 ± 0.053
GGAGACCUAACUAUAUCAACCUACUACCUCA | 0.00536 ± 0.0033
GGAGACCUAAGUAUACAACCUACUACGUCA | 0.0708 ± 0.016
GCUCUGGAUUACUAUACAACCUACUACCUCA | 1.75 ± 0.11
GGAGAGGAUAGUAUACAACCUACUACGUCA | 0.413 ± 0.033
GGAGACGAUACUAUGACAACCUACUACCUCA | 1.59 ± 0.1
GCUCUGCAUACUAUACAACCUACUAGCUCA | 1.13 ± 0.12
CCUCUGGAUGACUAUACAACCUACUACCUCA | 1.21 ± 0.088
CCUCUGGAUACUAUACAAGCUACUUCCUCA | 0.599 ± 0.043
GCUGUGGAAACUAUACAACCUACUACCUCA | 1.56 ± 0.11
GCUCUGGAUACUAUCCAACCUACUACCUCA | 2.05 ± 0.14
GGACUGGAUACUAUACAUCCUACUACGUCA | 0.819 ± 0.054
GGAGACCUAUCUUUACAACCUACUACCACA | 0.129 ± 0.03
GCUCUGGAUACUAUAAACCUACUACCUCA | 1.21 ± 0.12
GGACUGCAUACUAUACAACCUACAACCUCA | 0.222 ± 0.028
GGAGACGAUAACUAUACAACCUACUACCUCA | 1.17 ± 0.07
GCUCUGGAUACUAUACUACCUUCUACCUCA | 0.268 ± 0.024
GCUCUGGAUACUAUACAUCCUACAACCUCA | 1.35 ± 0.11
GGAGACCUAACUAAACAACCUUCUACCUCA | 0.0156 ± 0.0057
GGAGAGCAUACUAUACAAGCUACUACCUCA | 0.883 ± 0.037

Sequence | pre-steady-state target cleavage rate
GGAGAGGAAUCUAUACAACCUACUACCUCA | 1.38 ± 0.077
GGAGACCAUACUAUACAACCUACUACCCUCA | 1.13 ± 0.072
GGAGUGGUUACUAUACAACCUACAACCUCA | 0.386 ± 0.03
GGAGAGGAUACUAUAGUUCCUACUACCUCA | 0.142 ± 0.021
GGAGAGGAUACUAUACAACCGACUACCUCA | 0.0128 ± 0.0024
GGACUGGAUACAAUAGAACCUACUACCUCA | 1.1 ± 0.082
GGAGAGCAUACUAUACAACCUACUUCCUCA | 0.452 ± 0.065
GGUCUGGAUUCUAUACAACCUACUUCCUCA | 0.0648 ± 0.016
GGAGACCUAUGUAUACAACCUACUACCUCA [g2:g19:cont:t1A] | 0.373 ± 0.05
GGAGACCUUACUAUACAACCUACUAGCUCA | 0.974 ± 0.076
GGAGACCUUACUUUACAACCUACUACGUCA | 0.42 ± 0.043
GGACUGGAUACUAUACAACCUACUCACCUCA | 0.628 ± 0.077
GGUCUGGAUAUCUAUACAACCUACUACCUCA | 0.818 ± 0.073
CCUCUGGAUACUUUACAACCUAGUACCUCA | 0.238 ± 0.035
GGAGACCUAUCCAUACAACCUACUACCUCA | 0.251 ± 0.048
CCUCUGGAUAGUAUUCAACCUACUACCUCA | 0.132 ± 0.029
GGUCUGGAUACUAUACUACCUACUACCUCA | 1.5 ± 0.091
GGAGACCAAACUAUACUACCUACUACCUCA | 0.185 ± 0.03
GGAGACCUAUGAUAUCAAGCAACUACCUCA | < 0.0001
GGAGACCUAUCUUUACAACCUACUACCUGA | 0.101 ± 0.025
GGAGACCAUACAUAACAACCUACUACCUCA | 0.0185 ± 0.0082
GCUCUGGAUACUAAACAACCUACUACCUCA | 1.69 ± 0.096
